Here are results for three molecules from patent US20220267409A1 (KAHR MEDICAL, published 2022).

In assay [1] the target is T1, human PDL1 expressed on DLD1-PDL1 cells (human, UniProt Q9NZQ7).
T1 construct: whole, on cells; also called CD274; DLD1 PDL1 overexpressing cell line
Description: flow cytometry on DLD1-PDL1 cells against DLD1 WT cells, dilutions of supernatant, detection with anti-4-1BBL antibody. The method, then:
The binding of the PD1 domain of heterodimers comprising a PD1 domain and a 4-1BBL domain (e.g. PD1-4-3xsc1BBL, SIRPα-PD1-3xsc4-1BBL heterodimers) to human PDL1 is determined using DLD1-PDL1 cell line overexpressing PDL1. DLD1-WT cells serve as a control as it expresses low levels of endogenous PDL1 (FIG. 8A). Cells are incubated with different dilutions of supernatant containing the heterodimers, followed by immuno-staining with a conjugated anti 4-1BBL antibody. Binding is analyzed by flow cytometry.
Methods—Cells were incubated with serial dilutions of the produced heterodimers-containing supernatants for 20 minutes at 4° C., followed by immuno-staining with conjugated antibody against 4-1BBL and analyzed by flow cytometry. In some cases, cells underwent pre-incubation with anti CD47 blocker antibody prior to the incubation with the supernatants.

The target in assay [2] is T2, human CD155 (PVR) endogenously expressed on DLD-1 WT cells (human, UniProt P15151 21-417).
T2 construct: whole, on cells
T2 sequence (looked up): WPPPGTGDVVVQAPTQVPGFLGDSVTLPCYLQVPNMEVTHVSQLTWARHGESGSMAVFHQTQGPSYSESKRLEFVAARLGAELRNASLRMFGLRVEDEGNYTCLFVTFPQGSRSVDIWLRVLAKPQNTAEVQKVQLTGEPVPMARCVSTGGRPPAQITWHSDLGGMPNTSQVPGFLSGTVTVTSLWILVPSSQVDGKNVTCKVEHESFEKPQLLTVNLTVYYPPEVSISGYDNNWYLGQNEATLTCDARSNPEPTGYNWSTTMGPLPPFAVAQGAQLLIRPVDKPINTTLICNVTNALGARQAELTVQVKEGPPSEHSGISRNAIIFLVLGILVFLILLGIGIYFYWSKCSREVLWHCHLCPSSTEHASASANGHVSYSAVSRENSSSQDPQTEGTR
The assay can be described thus: flow cytometry on DLD-1 WT cells (endogenous CD155) against U937 cells, dilutions of supernatant, detection with anti-4-1BBL antibody. The method, then: Binding was determined following incubation of the cells with the heterodimer by immuno-staining of its 4-1BBL domain using an anti-4-1BBL antibody, followed by flow cytometric analysis.
The binding of the TIGIT domain of heterodimers comprising a TIGIT domain and a 4-1BBL domain (e.g. TIGIT-Fc-PD1-3xSc-4-1BBL heterodimer) to human CD155 is determined using a DLD-1 WT cell line endogenously expressing CD155. U937 cells serve as a negative control as they don't express endogenous CD155. Cells are incubated with different dilutions of supernatant containing the heterodimers, followed by immuno-staining with a conjugated anti 4-1BBL antibody. Binding is analyzed by flow cytometry.
Methods—Cells were incubated with serial dilutions of the produced heterodimers-containing supernatants for 20 minutes at 4° C., followed by immuno-staining with conjugated antibody against 4-1BBL, and analyzed by flow cytometry.
A general note: In flow cytometry, cells or beads pass a laser one at a time.

The target in assay [3] is T3, human CD40 expressed on HT1080-CD40 cells (human, UniProt P25942 21-277).
T3 construct: whole, on cells; also called HT1080 overexpressing CD40 cells
Description: flow cytometry on HT1080-CD40 cells against HT1080 WT cells, dilutions of supernatant, detection with anti-PD1 antibody. The method, then: The binding of the heterodimer to the CD40 expressing cell line was determined following incubation of the cells with the heterodimer by immuno-staining of its PD1 domain using an anti-PD1 antibody, followed by flow cytometric analysis.
The binding of the CD40L domain of heterodimers comprising a CD40L domain and a PD1 domain (e.g. SIRPα-PD1-3xscCD40L heterodimer) to human CD40 is determined using a HT1080-CD40 cell line overexpressing CD40. HT1080 WT cells serve as a negative control as they don't express endogenous CD40. Cells are incubated with different dilutions of supernatant containing the heterodimers, followed by immuno-staining with conjugated anti-PD-1 antibody. Binding is analyzed by flow cytometry.

T1 sequence (Q9NZQ7 19-290): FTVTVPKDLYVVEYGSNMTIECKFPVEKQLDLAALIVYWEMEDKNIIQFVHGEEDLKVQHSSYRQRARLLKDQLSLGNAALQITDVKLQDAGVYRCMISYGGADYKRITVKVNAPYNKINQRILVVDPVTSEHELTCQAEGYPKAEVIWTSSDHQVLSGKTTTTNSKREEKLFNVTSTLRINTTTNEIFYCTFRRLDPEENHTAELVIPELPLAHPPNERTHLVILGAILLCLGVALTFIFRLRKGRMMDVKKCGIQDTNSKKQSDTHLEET
T3 sequence (P25942 21-277): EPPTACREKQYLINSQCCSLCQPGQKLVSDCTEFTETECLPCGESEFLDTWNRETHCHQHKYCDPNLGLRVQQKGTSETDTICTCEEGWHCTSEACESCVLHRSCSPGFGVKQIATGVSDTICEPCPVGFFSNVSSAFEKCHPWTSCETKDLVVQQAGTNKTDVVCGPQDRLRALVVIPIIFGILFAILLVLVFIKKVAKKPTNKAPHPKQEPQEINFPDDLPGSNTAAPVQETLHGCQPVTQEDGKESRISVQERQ

B1: SIGLEC10-Fc-PD1-3xsc-4-1BBL heterodimer TSP401 (SEQ ID NOs: 150 and 79) (Fc fusion)
chain 1: DGRFWIRVQESVMVPEGLSISVPCSFSYPRQDWTGSTPAYGYWFKAVTETTKGAPVATNHQSREVEMSTRGRFQLTGDPAKGNCSLVIRDAQMQDESQYFFRVERGSYVRYNFMNDGFFLKVTALTQKGGGGSGGGGS[human IgG4 Fc with S228P L235E Y349C T366W (EU numbers) omitted here]
chain 2: DSPDRPWNPPTFSPALLVVTEGDNATFTCSFSNTSESFVLNWYRMSPSNQTDKLAAFPEDRSQPGQDSRFRVTQLPNGRDFHMSVVRARRNDSGTYLCGAISLAPKAQIKESLRAELRVTERRAEVPTAHPSPSPRPAGQGGGGSGGGGSESKYGPPCPPCPAPEFEGGPSVFLFPPKPKDTLMISRTPEVTCVVVDVSQEDPEVQFNWYVDGVEVHNAKTKPREEQFNSTYRVVSVLTVLHQDWLNGKEYKCKVSNKGLPSSIEKTISKAKGQPREPQVYTLPPSQCEMTKNQVSLSCAVKGFYPSDIAVEWESNGQPENNYKTTPPVLDSDGSFFLVSRLTVDKSRWQEGNVFSCSVMHEALHNHYTQKSLSLSLGKGGGGSGGGGSAASPRLREGPELSPDDPAGLLDLRQGMFAQLVAQNVLLIDGPLSWYSDPGLAGVSLTGGLSYKEDTKELVVAKAGVYYVFFQLELRRVVAGEGSGSVSLALHLQPLRSAAGAAALALTVDLPPASSEARNSAFGFQGRLLHLSAGQRLGVHLHTEARARHAWQLTQGATVLGLFRVTPEIPAGLPSPRSEGGGGSGGGGSGGGGSAASPRLREGPELSPDDPAGLLDLRQGMFAQLVAQNVLLIDGPLSWYSDPGLAGVSLTGGLSYKEDTKELVVAKAGVYYVFFQLELRRVVAGEGSGSVSLALHLQPLRSAAGAAALALTVDLPPASSEARNSAFGFQGRLLHLSAGQRLGVHLHTEARARHAWQLTQGATVLGLFRVTPEIPAGLPSPRSEGGGGSGGGGSGGGGSAASPRLREGPELSPDDPAGLLDLRQGMFAQLVAQNVLLIDGPLSWYSDPGLAGVSLTGGLSYKEDTKELVVAKAGVYYVFFQLELRRVVAGEGSGSVSLALHLQPLRSAAGAAALALTVDLPPASSEARNSAFGFQGRLLHLSAGQRLGVHLHTEARARHAWQLTQGATVLGLFRVTPEIPAGLPSPRSE
notes: Knob-into-hole hIgG4 Fc heterodimer made in Expi293F cells; tested as culture supernatant; also called SIGLEC10-PD1-sc3x4-1BBL heterodimer
As for B1, the binding result in assay [1] was “binds”.

B2: TIGIT-Fc-PD1-3xsc-4-1BBL heterodimer TSP501 (SEQ ID NOs: 152 and 79) (Fc fusion)
chain 1: MTGTIETTGNISAEKGGSIALQCHLSSTTAQVTQVNWEQQDQLLAISNADLGWHISPSFKDRVAPGPGLGLTLQSLTVNDTGEYFCIYHTYPDGTYTGRIFLEVLESSVAEHGGGGSGGGGS[human IgG4 Fc with S228P L235E Y349C T366W (EU numbers) omitted here]
chain 2: DSPDRPWNPPTFSPALLVVTEGDNATFTCSFSNTSESFVLNWYRMSPSNQTDKLAAFPEDRSQPGQDSRFRVTQLPNGRDFHMSVVRARRNDSGTYLCGAISLAPKAQIKESLRAELRVTERRAEVPTAHPSPSPRPAGQGGGGSGGGGSESKYGPPCPPCPAPEFEGGPSVFLFPPKPKDTLMISRTPEVTCVVVDVSQEDPEVQFNWYVDGVEVHNAKTKPREEQFNSTYRVVSVLTVLHQDWLNGKEYKCKVSNKGLPSSIEKTISKAKGQPREPQVYTLPPSQCEMTKNQVSLSCAVKGFYPSDIAVEWESNGQPENNYKTTPPVLDSDGSFFLVSRLTVDKSRWQEGNVFSCSVMHEALHNHYTQKSLSLSLGKGGGGSGGGGSAASPRLREGPELSPDDPAGLLDLRQGMFAQLVAQNVLLIDGPLSWYSDPGLAGVSLTGGLSYKEDTKELVVAKAGVYYVFFQLELRRVVAGEGSGSVSLALHLQPLRSAAGAAALALTVDLPPASSEARNSAFGFQGRLLHLSAGQRLGVHLHTEARARHAWQLTQGATVLGLFRVTPEIPAGLPSPRSEGGGGSGGGGSGGGGSAASPRLREGPELSPDDPAGLLDLRQGMFAQLVAQNVLLIDGPLSWYSDPGLAGVSLTGGLSYKEDTKELVVAKAGVYYVFFQLELRRVVAGEGSGSVSLALHLQPLRSAAGAAALALTVDLPPASSEARNSAFGFQGRLLHLSAGQRLGVHLHTEARARHAWQLTQGATVLGLFRVTPEIPAGLPSPRSEGGGGSGGGGSGGGGSAASPRLREGPELSPDDPAGLLDLRQGMFAQLVAQNVLLIDGPLSWYSDPGLAGVSLTGGLSYKEDTKELVVAKAGVYYVFFQLELRRVVAGEGSGSVSLALHLQPLRSAAGAAALALTVDLPPASSEARNSAFGFQGRLLHLSAGQRLGVHLHTEARARHAWQLTQGATVLGLFRVTPEIPAGLPSPRSE
notes: Knob-into-hole hIgG4 Fc heterodimer made in Expi293F cells; tested as culture supernatant; also called TIGIT-PD1-sc3x4-1BBL heterodimer; PD1-TIGIT-sc3x4-1BBL heterodimer
Regarding B2, the binding result in assay [1] and in assay [2] was “binds” each time.

B3: PD1-SIRPα-Fc-3xscCD40L heterodimer TSP112 (SEQ ID NOs: 81 and 146) (Fc fusion)
chain 1: DSPDRPWNPPTFSPALLVVTEGDNATFTCSFSNTSESFVLNWYRMSPSNQTDKLAAFPEDRSQPGQDSRFRVTQLPNGRDFHMSVVRARRNDSGTYLCGAISLAPKAQIKESLRAELRVTERRAEVPTAHPSPSPRPAGQGGGGSGGGGS[human IgG4 Fc with S228P L235E Y349C T366W (EU numbers) omitted here]
chain 2: [about 350 residues omitted here]GGGGSGGGGSESKYGPPCPPCPAPEFEGGPSVFLFPPKPKDTLMISRTPEVTCVVVDVSQEDPEVQFNWYVDGVEVHNAKTKPREEQFNSTYRVVSVLTVLHQDWLNGKEYKCKVSNKGLPSSIEKTISKAKGQPREPQVYTLPPSQCEMTKNQVSLSCAVKGFYPSDIAVEWESNGQPENNYKTTPPVLDSDGSFFLVSRLTVDKSRWQEGNVFSCSVMHEALHNHYTQKSLSLSLGKGGGGSGGGGSGGGGSGGGGSQKGDQNPQIAAHVISEASSKTTSVLQWAEKGYYTMSNNLVTLENGKQLTVKRQGLYYIYAQVTFCSNREASSQAPFIASLSLKSPGRFERILLRAANTHSSAKPCGQQSIHLGGVFELQPGASVFVNVTDPSQVSHGTGFTSFGLLKLGGGGSGGGGSGGGGSQKGDQNPQIAAHVISEASSKTTSVLQWAEKGYYTMSNNLVTLENGKQLTVKRQGLYYIYAQVTFCSNREASSQAPFIASLSLKSPGRFERILLRAANTHSSAKPCGQQSIHLGGVFELQPGASVFVNVTDPSQVSHGTGFTSFGLLKLGGGGSGGGGSGGGGSQKGDQNPQIAAHVISEASSKTTSVLQWAEKGYYTMSNNLVTLENGKQLTVKRQGLYYIYAQVTFCSNREASSQAPFIASLSLKSPGRFERILLRAANTHSSAKPCGQQSIHLGGVFELQPGASVFVNVTDPSQVSHGTGFTSFGLLKL
notes: Knob-into-hole hIgG4 Fc heterodimer made in Expi293F cells; tested as culture supernatant; also called PD1-SIRPα-sc3xCD40L heterodimer
On to B3, for which the binding result in assay [3] is on record as “binds”.
